Reference: PubChem BioAssay AID686978 (National Center for Advancing Translational Sciences (NCATS), 2013)
Among all 420,000 compounds or so, about 64,000 (15%) were called active. Inconclusive results, whose numbers are uncertain, are shown with a selection of clear calls. Calls follow the shape of the dose curve; as a rule, active = well fitted inhibition curve with a large enough effect; inconclusive = small, poorly fitted or top-dose-only effect; inactive = flat fitted curve, though single readings scatter. Potencies of inconclusive entries are left out as doubtful fits.

experiment: qHTS for Inhibitors of human tyrosyl-DNA phosphodiesterase 1 (TDP1): qHTS in cells in absence of CPT; settings: DT40 Tdp1-/- hTDP1 cells, no CPT, ATP luminescence, 48 h; activity change, negative = growth inhibition: at 46.2 µM (top of the series) unless noted; also: nearly all actives have a fitted effect of over 55% in size
In short: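 No-CPT arm: Tdp1-/-;hTDP1 DT40 cells (400/well) plus compounds, incubated ≥48 hr at 37 °C. Readout CellTiter-Glo luminescence.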
% is scaled to controls: 0 for no effect and ±100 for the full control effect; potency is read from the fitted curve at half-maximal effect; tags tell the direction and shape of the fitted curve.

Row | Structure (SMILES) | Potency | activity change, negative = growth inhibition
1 | COC(=O)C1CCN(Cc2ccc(OCCCN3CCN(c4ccc([N+](=O)[O-])cc4)CC3)cc2)CC1 | active: 10.3 µM | –
2 | CCOP(=O)(OCC)C(NC(=O)Nc1ccc(Cl)cc1)C(=O)N(CC)CC (stereo not given) | inconclusive [inhibitor, single point] | –
3 | C=CCc1ccc(OCC(O)CN2CCc3ccccc3C2)c(OC)c1 (stereo not given) | inconclusive [inhibitor, single point] | –
4 | Cc1cn2c(=O)cc(COC(=O)c3cccc(NC(=O)COc4ccccc4)c3)nc2s1 | inconclusive [inhibitor, single point] | –
5 | CCCC(C(=O)NCC1CCCO1)N(Cc1ccco1)C(=O)CNS(=O)(=O)c1ccccc1 (stereo not given) | – | inactive: -4.3%
6 | CCC(C)[C@H](NC(=O)[C@@H]1Cc2ccccc2CN1)C(=O)NCc1ccc(OC)cc1 (stereo not given in full) | inconclusive [inhibitor, single point] | –
7 | Cc1ccc(C)c(NC(=O)CN(C)S(=O)(=O)c2ccccc2)c1 | – | inactive: -26.2%
8 | COc1ccc(C(=O)C2CCCN(C(=O)c3ccccc3C(C)=O)C2)cc1F (stereo not given) | inconclusive [inhibitor, single point] | –
9 | COc1ccc(OC)c(NC(=O)c2oc3c(c2C)-c2nn(Cc4ccc(Cl)cc4)cc2CC3)c1 | inconclusive [inhibitor, single point] | –
10 | COc1ccccc1CNc1nc(NCc2ccc(C(C)C)cc2)c2sccc2n1 | active: 2.91 µM | –
11 | CCOC(=O)c1cnc(-n2nc(C)cc2C)nc1Nc1ccc(O)cc1 | active: 2.91 µM | –
12 | COc1cc(OC)cc(-c2cc3nc(C4CCN(C(=O)OC(C)(C)C)CC4)cc(=O)n3[nH]2)c1 | inconclusive [inhibitor, partial curve] | –
13 | COCCCNC(=O)C1CCC(CNS(=O)(=O)c2ccc3c(c2)CC(C)N3C(=O)C2CC2)CC1 (stereo not given) | – | inactive: 2.59%
14 | CCOc1ccc(S(=O)(=O)N(CC(=O)Nc2cccnc2)c2ccc(F)cc2)cc1 | inconclusive [inhibitor, single point] | –
15 | O=c1[nH]nc(SCc2nnc(-c3cccc(Cl)c3)o2)n1C1CCCCC1 | inconclusive [inhibitor, partial curve, poor fit] | –
16 | CCOC(=O)c1c(NC(=S)NCc2ccccc2)sc2c1CCN(C(=O)OCC)C2 | inconclusive [inhibitor, single point] | –
17 | Cc1ccc2c(CC(=O)N3CCN(c4cccc(Cl)c4)CC3)coc2c1C | inconclusive [inhibitor, single point] | –
18 | CCOc1ccc(N2C(=O)CC(N(CCc3ccc(OC)c(OC)c3)C(=S)Nc3ccccc3)C2=O)cc1 (stereo not given) | inconclusive [inhibitor, single point] | –
19 | Cc1ccc(C(=O)NNC(=S)NC(=O)c2ccco2)cc1 | active: 11.6 µM | –
20 | COc1ccc(S(=O)(=O)N2CCCC2CNC(=O)C(=O)NCc2ccc3c(c2)OCO3)cc1 (stereo not given) | inconclusive [inhibitor, partial curve] | –
21 | O=c1c(C(c2ccc(Br)cc2)c2c(O)nc3n(c2=O)CCCS3)c(O)nc2n1CCCS2 | – | inactive: -9.75%
22 | CN(C)c1ccc(-c2ccnc3c2CC(C)(C(=O)NCC2CC2)O3)cc1 (stereo not given) | active: 5.17 µM | –
23 | O=C(Nc1ccc(F)cc1F)c1cccc(S(=O)(=O)N2CCCCC2)c1 | inconclusive [inhibitor, single point] | –

Row | Structure (SMILES) | Potency | activity change, negative = growth inhibition
24 | COc1cc(NC(=O)Nc2nc(C(N)CCc3ccccc3)cs2)cc(OC)c1OC (stereo not given) | active: 7.31 µM | –
25 | COc1ccc(/C=C/c2ccncc2)c2ccccc12 | inconclusive [inhibitor, single point] | –
26 | CCC(=O)Nc1c(C#N)c2nc3ccccc3nc2n1-c1ccc(C)cc1 | – | inactive: -3.33%
27 | Cc1ccnc2c(O)cccc12 | active: 0.891 µM | –
28 | CCc1nc(C#N)c(N2CCCCC2)o1 | – | inactive: 0.452%
29 | CCn1cc(C(=O)NCc2ccc3c(c2)OCO3)c(=O)c2cc(S(=O)(=O)N3CCOCC3)ccc21 | – | inactive: -16.9%
30 | O=C(COC(=O)CNC(=O)c1ccc(Cl)cc1)Nc1ccc(Cl)cc1C(F)(F)F | – | inactive: -0.786%
31 | CN1CCNC(=O)C1CC(=O)N1CC=C(c2ccc(F)cc2)CC1 (stereo not given) | – | inactive: 3.99%
32 | O=C(NN=Cc1ccc(F)cc1)c1ccccc1NS(=O)(=O)c1cccs1 | inconclusive [inhibitor, single point] | –
33 | CCCCN(C)CCNC(=O)c1ccc2c(c1)NC(=O)C(N1CCCCC1)S2 (stereo not given) | inconclusive [inhibitor, partial curve] | –
34 | CC(=O)C1=C(O)C(=O)N(CCCN2CCOCC2)C1c1ccccc1[N+](=O)[O-] (stereo not given) | inconclusive [inhibitor, single point] | –
35 | O=C(CCSCc1cccc(F)c1)NCc1ccc(F)cc1 | active: 18.4 µM | –
36 | O=C(COC(=O)C1CC(=O)N(Cc2ccccc2)C1)Nc1ccc(Cl)cc1F (stereo not given) | – | inactive: 0.417%
37 | COc1ccc(CCC(=O)NCCS(=O)(=O)N2CCN(c3ccc(F)cc3)CC2)cc1 | inconclusive [inhibitor, single point] | –
38 | CCOc1ccc(NC(=O)CN(C)C(=O)Cc2sc(C)nc2-c2ccc(F)cc2)cc1OCC | inconclusive [inhibitor, single point] | –
39 | COc1ccc(-c2nc(-n3c(C)c(C(C)=O)c(C(C)=O)c3C)sc2C)cc1 | active: 23.1 µM | –
40 | Clc1ccccc1-c1cccc2nccn12 | inconclusive [inhibitor, single point] | –
41 | COc1ccc(CCN(C)Cc2ccc(C(=O)Nc3ccccc3)cc2)cc1OC | inconclusive [inhibitor, single point] | –
42 | O=C(/C=C/c1ccccc1Cl)NCc1cccs1 | inconclusive [inhibitor, partial curve] | –
43 | COc1cc(C(C)=O)ccc1OCc1cn(CC(=O)c2ccc(O)cc2)nn1 | – | inactive: -9.27%
44 | COc1ccc(NC(=O)CC2C(=O)N(c3ccc(C)cc3)C(=O)N2Cc2ccc3c(c2)OCO3)cc1 (stereo not given) | inconclusive [inhibitor, single point] | –
45 | O=C(NC1(C(F)(F)F)N=C(c2ccccc2)NC1=O)c1ccc(Cl)cc1Cl (stereo not given) | inconclusive [inhibitor, single point] | –
